# Reference: the supplement of paper PMC12645437, “Orthogonal IMiD-Degron Pairs Induce Selective Protein Degradation in Cells” (ACS Chemical Biology, 2025)
# The other results are listed elsewhere or left out.
# B1: Q9UKT9 (peptide)
# chain: FLCEICGAIFTQKGNLLRHIKL
# B2: Q9UKT9 (peptide)
# chain: FMCSVCGHVFTQKGNLLRHIKL
# B3: Q9UKT9 (peptide)
# chain: FHCPQCGACFTQKGNLLRHIKL
# B4: Q9UKT9 (peptide)
# chain: FDCPQCGALFTQKGNLLRHIKL
# B5: Q9UKT9 (peptide)
# chain: FQCNVCGAEFTQKGNLLRHIKL
# B6: Q9UKT9 (peptide)
# chain: LQCEICGFYCTQKGNLLRHIKL
# B7: Q9UKT9 (peptide)
# chain: FACPICGRVFTQKGNLLRHIKL
# B8: Q9UKT9 (peptide)
# chain: FQCNVCGAHFTQKGNLLRHIKL
# B9: Q9UKT9 (peptide)
# chain: FRCSVCGHCFTQKGNLLRHIKL
# B10: Q9UKT9 (peptide)
# chain: FYCEICGRIFTQKGNLLRHIKL
# B11: Q9UKT9 (peptide)
# chain: LTCEICGFWCTQKGNLLRHIKL
# B12: Q9UKT9 (peptide)
# chain: LFCEICGFMCTQKGNLLRHIKL
# B13: Q9UKT9 (peptide)
# chain: FSCEQCGAYFTQKGNLLRHIKL
# B14: Q9UKT9 (peptide)
# chain: FLCNQCGREFTQKGNLLRHIKL
# B15: Q9UKT9 (peptide)
# chain: FFCNVCGAFFTQKGNLLRHIKL
# B16: Q9UKT9 (peptide)
# chain: LICNQCGFTCTQKGNLLRHIKL
# B17: Q9UKT9 (peptide)
# chain: FSCEICGRIFTQKGNLLRHIKL
# B18: Q9UKT9 (peptide)
# chain: LKCEICGFRCTQKGNLLRHIKL
# B19: Q9UKT9 (peptide)
# chain: FLCNVCGAGFTQKGNLLRHIKL
# B20: Q9UKT9 (peptide)
# chain: FFCEICGHGFTQKGNLLRHIKL
# B21: Q9UKT9 (peptide)
# chain: FLCNVCGASFTQKGNLLRHIKL
# B22: Q9UKT9 (peptide)
# chain: FHCDVCGAEFTQKGNLLRHIKL
# B23: Q9UKT9 (peptide)
# chain: LWCNQCGFCCTQKGNLLRHIKL
# B24: Q9UKT9 (peptide)
# chain: FECPVCGAPFTQKGNLLRHIKL
# B25: Q9UKT9 (peptide)
# chain: FNCDQCGALFTQKGNLLRHIKL
# B26: Q9UKT9 (peptide)
# chain: FECNVCGAEFTQKGNLLRHIKL
# B27: Q9UKT9 (peptide)
# chain: FHCNQCGRLFTQKGNLLRHIKL
# B28: Q9UKT9 (peptide)
# chain: LQCEICGFMCTQKGNLLRHIKL
# B29: Q9UKT9 (peptide)
# chain: FVCEQCGAGFTQKGNLLRHIKL
# B30: Q9UKT9 (peptide)
# chain: FFCEICGRPFTQKGNLLRHIKL
# B31: Q9UKT9 (peptide)
# chain: FVCPICGHEFTQKGNLLRHIKL
# B32: Q9UKT9 (peptide)
# chain: FDCEICGRIFTQKGNLLRHIKL
# Molecular target: no compound (DMSO)
# Experiment: log2 fold change of degron read counts, EGFP-low vs EGFP+ sorted cells; higher = lower degron-EGFP level without compound (poor expression or instability)
# Details: compound: DMSO control; 18 h
# 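Further: jurkat cells carrying a lentiviral library of mutant zinc finger degrons fused to EGFP plus mCherry, mCherry+ cells FACS sorted, degron abundance counted by next-generation sequencing.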
row,Sequence,log2 fold change of degron read counts
1,B1,-0.119
2,B2,-0.158
3,B3,0.0405
4,B4,-0.132
5,B5,-1.84
6,B6,0.484
7,B7,0.569
8,B8,-0.344
9,B9,-0.363
10,B10,0.309
11,B11,0.565
12,B12,0.714
13,B13,-0.748
14,B14,-1.7
15,B15,0.964
16,B16,-0.029

row,Sequence,log2 fold change of degron read counts
1,B17,-0.367
2,B18,0.0214
3,B19,-1.11
4,B20,-0.908
5,B21,-0.221
6,B22,-2.4
7,B23,2.02
8,B24,-0.304
9,B25,-0.129
10,B26,-1.94
11,B27,0.658
12,B28,-0.0161
13,B29,-0.91
14,B30,-0.252
15,B31,-0.477
16,B32,-0.463
